Test results as given in the supplement of paper PMC11417369.
± gives the standard deviation of the averaged measurements. This is one part of the list.

The sequences below were run on PfAP2-EXP AP2 domain (GST-tagged) (assay: gcPBM binding intensity (ln(normalized median fluorescence intensity)); higher = stronger DNA binding).
How it was run: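 In this array assay, P. falciparum DNA-binding domains with a GST tag, expressed in E. coli, were applied for 1 h to primer-extended double-stranded 36-bp intergenic genomic probes and negative controls on an Agilent 4 × 180k array. Bound protein was visualised with Alexa488 anti-GST antibody at 488 nm. Binding intensity is the highest Masliner-normalised natural-log median intensity across replicate spots of either probe orientation.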

Sequence | gcPBM binding intensity (ln)
TATTATTTACTTATTGCACACATATAAAATATATTT [CACACA_site9017] | 8.69 ± 0.26
ATCTATCATATTTATGCACACAAAAATAATTAATTC [CACACA_site8837] | 8.78 ± 0.057
TCACACACTCTCAAAAGTACAAGAAGATTATGAAGA [XGTACX_site4748] | 8.87 ± 0.59
AAAAAAATATATAAATGTACATATTGTTTAATTAAT [XGTACX_site3794] | 8.49 ± 0.4
ATGAACTAAACTAATCGTACAATAAGTTTTATTATA [XGTACX_site4891] | 8.31 ± 0.3
GTTGTCCCCCTTTCTATGCACACTTTAAATTATTCA [CACACA_site52] | 9.12 ± 0.18
AATTTATAAGAATATTGTACGTTTAATATATTGTAA [XGTACX_site7553] | 8.39 ± 0.16
ATTCTAATAGATAGTAGTACCTATAAGTTTTCTTTT [XGTACX_site2315] | 8.36 ± 0.4
AAGTTTATTATATATAAATTATTATATATATATATA [CACACA_negctrl_site189] | 9.79 ± 0.26
AAAATAATAATTAAATAATAGTAAATGAAAAATAAA [CACACA_negctrl_site57] | 8.66 ± 0.46
ATAAATACTAGGCACACACACATATAGATTTATATA [CACACA_site7064] | 8.94 ± 0.54
TATGTGTTCAGTATTGCACACACACTCCAAAATAAA [CACACA_site8018] | 8.39 ± 0.16
ACTTCATTTTATAAGTGTACATAATTTGTTTATATA [XGTACX_site5453] | 8.77 ± 0.33
ATATCAACTGAATTGTATAGGCGATAAAAGAAAAAA [CACACA_negctrl_site1334] | 8.78 ± 0.49
AGAATTATAAATTATAGTACATAAAATTTTGATGTA [XGTACX_site5726] | 8.34 ± 0.31
ATATAAATATATGTATGTACACATTTTTTTTTTTTT [XGTACX_site247] | 8.27 ± 0.31
TTTATACATACATTCGTGCACATACGTATAACATAT | 9.23 ± 0.042
AAACGATCTCGATGTTGTACACATTTATATAGAAAC [XGTACX_site4373] | 8.86 ± 0.4
CTAAACTAAACAAACTGTACACAAATAAAACAATAA [XGTACX_site8880] | 8.96 ± 0.36
CATGTGTGTATAATTTGTACATATACATAATAAATA [XGTACX_site2418] | 8.62 ± 0.38
TACTAAAATATATATATGCAACATGAGATATTCAAC [XGTACX_negctrl_site283] | 8.85 ± 0.39
TCTCATAGGAAACACACACACACACCCACATATATA [CACACA_site1738] | 8.59 ± 0.45

Sequence | gcPBM binding intensity (ln)
ATATATGTGCGCGTATGTACATAAAATAAATATACA [XGTACX_site2689] | 9.31 ± 0.32
TAAATAAAAAAAAAAAGTACATACATACAAACATAT [XGTACX_site4427] | 8.74 ± 0.53
ATATATTTTTTAAATTTAAAAATTATAAAATTTATA [TGCATGCA_negctrl_site36] | 8.16 ± 0.45
TGGGTCTCTAACTGGTGTACTATTTACATATTATAC [XGTACX_site8593] | 8.75 ± 0.37
TATGATTTTAACAACTGTACAATATAATAAATCTAA [XGTACX_site2198] | 8.38 ± 0.3
TAAAAGAAAAATTAGTGTACCAATATTAACATAAAA [XGTACX_site5474] | 8.38 ± 0.43
ATATATTTTTAATTACGTACTTAATAATATATACAA [XGTACX_site3285] | 8.52 ± 0.23
TATACAATATATTTTGGTACACAAACAAAAAAATAT [XGTACX_site2522] | 8.76 ± 0.45
ATTAAAAGAACCAAGTGTACATTCTATATATAAAAA [XGTACX_site4260] | 8.56 ± 0.38
GTTCACCAAAGGTAACGTACACAAACATATATATAT [XGTACX_site1073] | 9.705 ± 0.064
ATATTATGATCTATTTTTATATTCTATTTGATAAAT [CACACA_negctrl_site1070] | 8.43 ± 0.44
GAAAAAGACAAAAGGTGTACAATATGAAATATATAT [XGTACX_site373] | 8.88 ± 0.31
TAATTCTAAATAAATGTACACACAAAAATAAATGTA [CACACA_site8509] | 8.61 ± 0.26
TTATAAAATTTTCTTCTATATTTTAATTATTCTCAT [TGCATGCA_negctrl_site571] | 8.38 ± 0.67
TTGATAAAATGGGAGAAATTAAAAAGGAAAAAAAAA [CACACA_negctrl_site1279] | 8.29 ± 0.24
CTATTTTATATGTGCACACATATACACCCACAAATA [CACACA_site1131] | 9.025 ± 0.078
TATATATATATTATATGTACATAAATATTTATACTC [XGTACX_site114] | 9.4 ± 0.2
AAAAAAATAACAAAATGTATACAATATAACAAAAAT [GTGCAC_negctrl_site512] | 8.94 ± 0.4
AACATATACCCAGGTACATGCAAATATATATATTAT [TGCATGCA_site878] | 8.95 ± 0.42
ATATATATATATATGTGTACACAACAAAATAAAAAA [XGTACX_site7378] | 10.2 ± 0.26
TTTAAAAATTAATTCTGTACACATTTTTATTTTATT [XGTACX_site8] | 8.46 ± 0.24
TTCTTTCTTCAAAAGTGTACCAAATGTTAGAAAGGT [XGTACX_site4353] | 9.34 ± 0.31
